# PubChem BioAssay AID1345083 (National Center for Advancing Translational Sciences (NCATS), 2018)
# About 6,200 (6.6%) of roughly 94,000 compounds were called active. This list was built around the results that the source calls inconclusive (neither active nor inactive); the mix of calls is not that of the screen. Calls follow the shape of the dose curve; as a rule, active = well fitted inhibition curve with a large enough effect; inconclusive = small, poorly fitted or top-dose-only effect; inactive = flat fitted curve, though single readings scatter. A potency beside an inconclusive call is a rough fit, not a confirmed value.
# Assay: Cytotoxic Profiling in HEK 293 Cell Line of Diverse Libraries Using Quantitative High-Throughput Screening; also: nearly all actives have a fitted effect of over 60% in size
# Details: HEK 293 viability, ATP luminescence (CellTiter-Glo), 48-72 h; activity change, negative = cytotoxicity: at 115 µM (top of the series) unless noted; series mostly up to 115 µM
# Method in brief: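 Viability of HEK 293 cells, plated at 250 cells/well, was judged by cellular ATP after compound treatment for 48 or 72 hr. Luminescence was imaged 10 min after CellTiter-Glo addition at room temperature.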
# % is scaled to controls: 0 for no effect and ±100 for the full control effect; potency is read from the fitted curve at half-maximal effect; tags tell the direction and shape of the fitted curve.
Compound,Potency,"activity change, negative = cytotoxicity",outcome
CC(C)Cn1c(=O)c(C(=O)NCc2ccc3c(c2)OCO3)nc2cccnc21,"inconclusive: 56.2 µM [inhibitor, partial curve, poor fit]",,
COc1cccc(C(=O)Nc2cc(-c3ccncc3)nn2C)c1,"inconclusive: 100 µM [inhibitor, partial curve]",,
N#Cc1cccnc1-c1ccc(C(=O)N2CCC(NC(=O)Cc3ccccn3)CC2)cc1,"inconclusive: 35.5 µM [inhibitor, partial curve, poor fit]",,
Cc1ccc(C2Cn3nnc(C(=O)N4CCC(C(=O)NC5CCCCC5)CC4)c3CO2)cc1 (configuration not stated),,inactive: 8.45%,
Cc1ccc2nc([C@H]3CCN(C(=O)Nc4ccccc4)C3)[nH]c2c1,,inactive: -10.5% [at 172 µM],
CCS(=O)(=O)Nc1ccc(C2(C(=O)NCc3ccccc3)CCCCC2)cc1,"inconclusive: 50.1 µM [inhibitor, partial curve, poor fit]",,
Cn1ncc2c(C(=O)NCCCN3CCCCC3)cc(-c3ccccc3C(F)(F)F)nc21,"inconclusive: 56.2 µM [inhibitor, partial curve, poor fit]",,
CCN(CC)C(=O)CCc1c(C)nn(-c2ccc(F)cc2)c1Oc1ccccc1OC,"inconclusive: 79.4 µM [inhibitor, partial curve, poor fit]",,
Cc1nn2c(c1-c1ccccc1Oc1ccccc1)N(C(=O)Cc1ccccc1)CCC2,active: 79.4 µM,,
Cn1ncc2c(C(=O)N3CCOCC3)cc(-c3ccc(Cl)cc3)nc21,,,inactive
COc1ccc(C(=O)NC2CCN(c3cnn(CC4CC4)c(=O)c3)CC2)c(OC)n1,"inconclusive: 44.7 µM [inhibitor, partial curve, poor fit]",,
Cc1cccc(OCCc2noc(C3CCCN(Cc4ccccc4C#N)C3)n2)c1 (configuration not stated),active: 89.1 µM,,
COc1cccc(-c2ccccc2NC(=O)C2CCN(CC(=O)O)CC2)c1,,,inactive
Cc1noc(-c2ccc3c(c2)OCO3)c1C(=O)N1CCC(Cc2ccccc2)CC1,"inconclusive: 56.2 µM [inhibitor, partial curve, poor fit]",,
COc1ccc2nc([C@H]3CCN(Cc4cccc(Cl)c4)C3)[nH]c2c1,"inconclusive: 12.6 µM [inhibitor, full curve, poor fit]",,
O=C(Cc1cccc(Cl)c1)N1CCn2c(nnc2-c2ccccc2)C1,,inactive: -21.4%,
Cc1ccc(OCc2nc(C3CN(C(=O)C4CCCO4)C3)no2)cc1 (configuration not stated),"inconclusive: 100 µM [inhibitor, partial curve, poor fit]",,
N#Cc1cccc(C(=O)N2CCC3(CC2)CN(C2CCC2)CC3CO)c1 (configuration not stated),"inconclusive: 89.1 µM [inhibitor, single point]",,
CN(C)c1cccc(Oc2nnnn2[C@H]2CO[C@H]3[C@@H]2OC[C@@H]3NC(=O)Nc2cccc3ccccc23)c1,"inconclusive: 50.1 µM [inhibitor, partial curve]",,
CCN1CCN(C[C@@H]2CN(Cc3ccccc3OC(F)F)C[C@@H]2CO)CC1,,inactive: -17%,
O=C(NCc1c[nH]c2ncccc12)c1ccc2ccccc2n1,"inconclusive: 100 µM [inhibitor, partial curve, poor fit]",,

Compound,Potency,"activity change, negative = cytotoxicity",outcome
Cc1cc(F)ccc1OC1CN(C(=O)c2ccccc2)C1,"inconclusive: 89.1 µM [inhibitor, partial curve, poor fit]",,
CCn1nc(C)c(CCNC(=O)c2cccc(C3CCNC3)c2)c1C (configuration not stated),,,inactive
CN1c2cc(C(=O)NCc3ccc(F)cc3F)ccc2C(=O)N2CCCCC21 (configuration not stated),"inconclusive: 89.1 µM [inhibitor, single point]",,
O=C(c1ccc(Cl)cc1)N1CCNc2cnc(Nc3ccccc3)nc2C1,"inconclusive: 63.1 µM [inhibitor, partial curve, poor fit]",,
CCCN1CCCCC12Cc1ccccc1CN([S+](C)(=O)[O-])C2 (configuration not stated),,inactive: -29.2%,
O=C(NCc1ccc(Cl)cc1)c1cccn2nccc12,"inconclusive: 126 µM [inhibitor, single point]",,
COCc1nncn1C1CCN(C(=O)c2cccc(OC)c2)CC1,,inactive: 3.54%,
Cc1ccc(CN2C(=O)NC3(CCN(C(=O)c4ccc(C#N)cc4)CC3)C2=O)cc1,,inactive: -29.5%,
O=C(NCc1cccc(F)c1)c1cc2c(s1)CCN(C(=O)c1ccccc1)C2,"inconclusive: 56.2 µM [inhibitor, partial curve, poor fit]",,
CCn1ccc(C(=O)N2CCN(c3cc(-c4ccc(Cl)cc4)[nH]n3)CC2)n1,"inconclusive: 56.2 µM [inhibitor, partial curve, poor fit]",,
COc1ccc(NC(=O)N[C@H]2CO[C@H]3[C@@H]2OC[C@@H]3n2nnnc2Oc2ccccc2)cc1,"inconclusive: 89.1 µM [inhibitor, partial curve, poor fit]",,
CN(C)c1ccc(C(=O)N2CCCC(COc3ccccc3C(=O)N3CCCC3)C2)cc1 (configuration not stated),"inconclusive: 10 µM [inhibitor, full curve]",,
Cc1nn2c(c1-c1ccccc1OCc1ccccc1)N(C(=O)Cc1ccccn1)CCC2,"inconclusive: 79.4 µM [inhibitor, partial curve]",,
Cc1ccc(OCc2nc(C3CN(C(=O)c4ccc5nc[nH]c5c4)C3)no2)cc1,"inconclusive: 39.8 µM [inhibitor, full curve, poor fit]",,
Cc1nc2c(c(-c3ccc(O)cc3)n1)CN(Cc1ccc(N(C)C)cc1)CCC2,"inconclusive: 63.1 µM [inhibitor, partial curve, poor fit]",,
O=c1n(-c2cccc(Cl)c2)nc2n1CCN(Cc1cccc3ccccc13)C2,"inconclusive: 79.4 µM [inhibitor, partial curve, poor fit]",,
COCC(=O)N[C@H]1C[C@@H](c2nc(-c3ccc(OC(F)(F)F)cc3)no2)N(C)C1,"inconclusive: 112 µM [inhibitor, partial curve]",,
COc1ccccc1OCC(=O)NCC1CCCN(Cc2ccc(C3CCCC3)s2)C1 (configuration not stated),"inconclusive: 79.4 µM [inhibitor, partial curve, poor fit]",,
O=C(c1ccccc1F)N1CCCC2(C1)NC(=O)N(Cc1ccc(Cl)cc1)C2=O (configuration not stated),"inconclusive: 89.1 µM [inhibitor, single point]",,
Cc1ccc(S(=O)(=O)N2CCCC(Cn3c(C)nc4cccnc43)C2)cc1F (configuration not stated),"inconclusive: 50.1 µM [inhibitor, partial curve, poor fit]",,
Cc1ccc(-n2cccc2CC(=O)N2CCCC(C)C2)cc1 (configuration not stated),"inconclusive: 79.4 µM [inhibitor, single point]",,

Compound,Potency,"activity change, negative = cytotoxicity",outcome
NC(=O)C1CCN(c2cc(-c3noc([C@@H]4CCCN4Cc4ccccc4F)n3)ccn2)CC1,"inconclusive: 50.1 µM [inhibitor, partial curve, poor fit]",,
Cc1ccc(NC(=O)c2ccc3c(c2)N(C)C2CCCCCN2C3=O)c(F)c1 (configuration not stated),"inconclusive: 50.1 µM [inhibitor, partial curve, poor fit]",,
O=C(NCc1cccs1)c1cc(-c2cccs2)c2cccn2n1,active: 50.1 µM,,
CCCc1noc(-c2ccn3c(CNC(=O)c4c(F)cccc4F)nnc3c2)n1,"inconclusive: 89.1 µM [inhibitor, single point]",,
Cn1nc(-c2nncn2Cc2ccccc2)c2c1CCN(C(=O)c1[nH]nc3c1COc1ccccc1-3)C2,"inconclusive: 100 µM [inhibitor, single point]",,
OC1(Cn2ccnc2)CCN(Cc2ccccc2Cn2cccn2)CC1,"inconclusive: 89.1 µM [inhibitor, single point]",,
CNC(=O)[C@H]1C[C@]2(CCCCN(CCO)C2=O)N(C(=O)Cc2ccc(F)cc2)[C@H]1c1ccco1,"inconclusive: 89.1 µM [inhibitor, single point]",,
COc1ccccc1C(=O)NC1CCN(c2cc(-c3ccccc3)[nH]n2)C1 (configuration not stated),"inconclusive: 20 µM [inhibitor, single point]",,
COc1cc2c(cc1OC)CN(c1cc(C3CC(O)C3)ncn1)CC2 (configuration not stated),"inconclusive: 50.1 µM [inhibitor, partial curve, poor fit]",,
O=C(NCCC1=CCCN(CCCn2cccc2)C1)c1ccco1,,inactive: -17.5%,
CC(C)CCN1CC[C@@H]2OCC(=O)N(Cc3c[nH]c4ccccc34)[C@H]2CC1,active: 100 µM,,
CCc1nc2c(c(-c3ccc(O)cc3)n1)CCN(Cc1cccc(OC)c1)CC2,"inconclusive: 56.2 µM [inhibitor, partial curve, poor fit]",,
O=C(N[C@H]1[C@H](O)[C@H](O)C[C@@H]1c1cccnc1)C1CCC1,,inactive: -1.52% [at 230 µM],
COc1cccc(Nc2ncc3c(n2)C(C)(C(=O)Nc2nc(C)cs2)CC3)c1 (configuration not stated),active: 50.1 µM,,
COc1cccc(CN2CCC[C@@H](O)[C@H](NC(=O)c3ccc(OCc4ccccc4)cc3)C2)c1,"inconclusive: 50.1 µM [inhibitor, partial curve, poor fit]",,
COc1ccc(Cn2c3c(c(=O)n2Cc2ccccc2)CCN(C(=O)c2nc4ccccc4[nH]2)C3)cc1,"inconclusive: 50.1 µM [inhibitor, partial curve, poor fit]",,
O=C1NCCCCCN(C(=O)COc2ccccc2)[C@@H]2C[C@@H](C(=O)N3CCc4ccccc4C3)C[C@H]12,"inconclusive: 89.1 µM [inhibitor, single point]",,
Clc1ccc(-c2cnc([C@@H]3COCCN3Cc3cnc[nH]3)[nH]2)cc1,,inactive: -21.8% [at 172 µM],
CCN1C(=O)CN(C(=O)Cc2ccccc2)CC12CCOCC2,,inactive: -5.71%,
COc1ccc(C(=O)NC2CCN(c3ccc(=O)n(C)n3)CC2)c(OC)n1,"inconclusive: 89.1 µM [inhibitor, single point]",,
